The IC50 comes from the fitted curve, where viability falls to half of the control; a limit (>, <) means that the fit lies beyond the doses tested. AUC is the area under the same curve over the 256-fold range up to the top dose, as a fraction; values near 1 show little effect. The top dose, if marked as inferred, is not printed in the source and was worked back from the curve model.
Key:
Assay in all cases: Viability of human cancer cell lines after 72 h of drug (GDSC screen)
NG-25 = compound: CCN1CCN(Cc2ccc(NC(=O)c3ccc(C)c(Oc4ccnc5[nH]ccc45)c3)cc2C(F)(F)F)CC1 [NG-25]; conditions: top dose 10.24 µM; top dose inferred
Protocol: (§1)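 Human cancer cell lines in 384-well plates, medium with 10% serum, drug for 72 h over a 256-fold dose range (nine 2-fold or five 4-fold steps up to the top dose). Adherent lines were fixed and stained with the nucleic acid dye Syto60, suspension lines read with resazurin; signal relative to control wells, capped at 0 and 100%. One two-parameter sigmoid per drug and line, fitted in a mixed model over all curves with the slope shared within a line.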

GSK-1904529A = compound: CCc1cc(Nc2nccc(-c3c(-c4ccc(OC)c(C(=O)Nc5c(F)cccc5F)c4)nc4ccccn34)n2)c(OC)cc1N1CCC(N2CCN(S(C)(=O)=O)CC2)CC1 [GSK-1904529A]; conditions: top dose 1.024 µM; top dose inferred
Protocol: as §1

BMS-509744 = compound: COc1cc(C)c(Sc2cnc(NC(=O)c3ccc(CNC(C)C(C)(C)C)cc3)s2)cc1C(=O)N1CCN(C(C)=O)CC1 [BMS-509744]; conditions: top dose 10.24 µM; top dose inferred
Protocol: as §1

PFI-1 = compound: COc1ccccc1S(=O)(=O)Nc1ccc2c(c1)CN(C)C(=O)N2 [PFI-1]; conditions: top dose 10 µM; top dose inferred
Protocol: as §1

Tipifarnib = compound: Cn1cncc1[C@@](N)(c1ccc(Cl)cc1)c1ccc2c(c1)c(-c1cccc(Cl)c1)cc(=O)n2C [Tipifarnib]; conditions: top dose 16 µM; top dose inferred
Protocol: as §1

Cell Line | AUC (NG-25) | IC50 (NG-25) | AUC (GSK-1904529A) | IC50 (GSK-1904529A) | AUC (BMS-509744) | IC50 (BMS-509744) | AUC (PFI-1) | IC50 (PFI-1) | AUC (Tipifarnib) | IC50 (Tipifarnib)
P32-ISH (Burkitt lymphoma, suspension) | 0.551 | 0.849 µM | 0.986 | > 1.02 µM | 0.904 | 7.57 µM | 0.802 | 3.57 µM | 0.7 | 3.09 µM
NCI-SNU-16 (stomach, suspension) | 0.986 | > 10.2 µM | 0.991 | > 1.02 µM | 0.902 | > 10.2 µM | 0.797 | 4.1 µM | 0.985 | > 16 µM
K5 (thyroid, adherent) | 0.875 | 9.34 µM | 0.982 | > 1.02 µM | 0.969 | > 10.2 µM | 0.85 | 7.07 µM | 0.821 | 8.73 µM
NCI-H1155 (large cell lung carcinoma, suspension) | 0.959 | > 10.2 µM | 0.993 | > 1.02 µM | 0.992 | > 10.2 µM | 0.954 | > 10 µM | 0.993 | > 16 µM
NB6 (neuroblastoma, adherent) | 0.852 | > 10.2 µM | 0.984 | > 1.02 µM | 0.94 | > 10.2 µM | 0.909 | > 10 µM | 0.845 | 15.7 µM
SUP-T1 (T-cell lymphoblastic leukaemia, suspension) | 0.758 | 3.26 µM | 0.987 | > 1.02 µM | 0.836 | 5.92 µM | 0.92 | > 10 µM | 0.479 | 0.882 µM
OS-RC-2 (kidney, adherent) | 0.804 | 8.17 µM | 0.953 | > 1.02 µM | 0.805 | 8.22 µM | 0.972 | > 10 µM | 0.759 | 8.05 µM
LU-165 (small cell lung carcinoma, suspension) | 0.969 | > 10.2 µM | 0.978 | > 1.02 µM | 0.953 | > 10.2 µM | 0.962 | > 10 µM | 0.968 | > 16 µM
NCI-H1304 (small cell lung carcinoma, suspension) | 0.98 | > 10.2 µM | 0.988 | > 1.02 µM | 0.988 | > 10.2 µM | 0.94 | > 10 µM | 0.981 | > 16 µM
CMK (acute myeloid leukaemia, suspension) | 0.575 | 0.99 µM | 0.991 | > 1.02 µM | 0.929 | > 10.2 µM | 0.76 | 3.03 µM | 0.241 | 0.208 µM
LC-2-ad (lung adenocarcinoma, adherent) | 0.759 | 3.67 µM | 0.975 | > 1.02 µM | 0.727 | 2.87 µM | 0.906 | > 10 µM | 0.483 | 0.897 µM
Calu-6 (lung adenocarcinoma, adherent) | 0.916 | > 10.2 µM | 0.98 | > 1.02 µM | 0.973 | > 10.2 µM | 0.973 | > 10 µM | 0.531 | 1.23 µM
KARPAS-299 (anaplastic large cell lymphoma, suspension) | 0.878 | 7.42 µM | 0.992 | > 1.02 µM | 0.953 | > 10.2 µM | 0.912 | > 10 µM | 0.97 | > 16 µM
MC116 (B-cell lymphoma, suspension) | 0.804 | 3.47 µM | 0.998 | > 1.02 µM | 0.987 | > 10.2 µM | 0.976 | > 10 µM | 0.753 | 4.08 µM
A253 (head and neck, adherent) | 0.972 | > 10.2 µM | 0.972 | > 1.02 µM | 0.951 | > 10.2 µM | 0.978 | > 10 µM | 0.762 | 5.59 µM
SNB75 (glioma, adherent) | 0.976 | > 10.2 µM | 0.945 | > 1.02 µM | 0.782 | 6.57 µM | 0.849 | > 10 µM | 0.741 | 6.9 µM
KMOE-2 (acute myeloid leukaemia, suspension) | 0.885 | 9.11 µM | 0.98 | > 1.02 µM | 0.953 | > 10.2 µM | 0.774 | 3.5 µM | 0.733 | 4.21 µM
KINGS-1 (glioma, adherent) | 0.823 | 9.3 µM | 0.964 | > 1.02 µM | 0.879 | > 10.2 µM | 0.939 | > 10 µM | 0.833 | > 16 µM
HCC2218 (breast, suspension) | 0.869 | > 10.2 µM | 0.982 | > 1.02 µM | 0.925 | > 10.2 µM | 0.892 | > 10 µM | 0.8 | 10.1 µM
OCUB-M (breast, adherent) | 0.828 | 5.19 µM | 0.969 | > 1.02 µM | 0.85 | 6.2 µM | 0.891 | 8.88 µM | 0.386 | 0.51 µM
JVM-3 (lymphoid neoplasm, suspension) | 0.905 | > 10.2 µM | 0.987 | > 1.02 µM | 0.987 | > 10.2 µM | 0.783 | 4.28 µM | 0.966 | > 16 µM
BE2-M17 (neuroblastoma, adherent) | 0.935 | > 10.2 µM | 0.986 | > 1.02 µM | 0.933 | > 10.2 µM | 0.84 | 7.15 µM | 0.938 | > 16 µM
LAMA-84 (chronic myeloid leukaemia, suspension) | 0.035 | < 0.04 µM | 0.985 | > 1.02 µM | 0.878 | > 10.2 µM | 0.977 | > 10 µM | 0.739 | 4.87 µM
IMR-5 (neuroblastoma, adherent) | 0.8 | 4.06 µM | 0.992 | > 1.02 µM | 0.913 | > 10.2 µM | 0.822 | 4.66 µM | 0.848 | 9.15 µM

Cell Line | AUC (NG-25) | IC50 (NG-25) | AUC (GSK-1904529A) | IC50 (GSK-1904529A) | AUC (BMS-509744) | IC50 (BMS-509744) | AUC (PFI-1) | IC50 (PFI-1) | AUC (Tipifarnib) | IC50 (Tipifarnib)
SK-UT-1 (soft tissue, adherent) | 0.924 | > 10.2 µM | 0.985 | > 1.02 µM | 0.977 | > 10.2 µM | 0.877 | 8.47 µM | 0.691 | 3.24 µM
HAL-01 (lymphoblastic leukaemia, suspension) | 0.59 | 1.09 µM | 0.989 | > 1.02 µM | 0.967 | > 10.2 µM | 0.744 | 2.82 µM | 0.781 | 5.83 µM
OPM-2 (myeloma, suspension) | 0.745 | 2.73 µM | 0.993 | > 1.02 µM | 0.882 | 7.47 µM | 0.836 | 4.98 µM | 0.941 | > 16 µM
Raji (Burkitt lymphoma, suspension) | 0.794 | 4.36 µM | 0.988 | > 1.02 µM | 0.944 | > 10.2 µM | 0.847 | 6.63 µM | 0.848 | 10.8 µM
MC-CAR (haematopoietic neoplasm, suspension) | 0.769 | 3.48 µM | 0.988 | > 1.02 µM | 0.963 | > 10.2 µM | 0.791 | 3.97 µM | 0.649 | 2.46 µM
NCI-H2135 (non-small cell lung carcinoma, adherent) | 0.826 | 5.96 µM | 0.991 | > 1.02 µM | 0.963 | > 10.2 µM | 0.99 | > 10 µM | 0.737 | 4.64 µM
P31-FUJ (acute myeloid leukaemia, suspension) | 0.993 | > 10.2 µM | 0.996 | > 1.02 µM | 0.991 | > 10.2 µM | 0.796 | 3.48 µM | 0.996 | > 16 µM
IST-SL1 (small cell lung carcinoma, semi-adherent) | 0.732 | 3.01 µM | 0.982 | > 1.02 µM | 0.956 | > 10.2 µM | 0.836 | 6.93 µM | 0.862 | 14.4 µM
CTB-1 (B-cell lymphoma, suspension) | 0.74 | 4.08 µM | 0.979 | > 1.02 µM | 0.884 | > 10.2 µM | 0.825 | 9.21 µM | 0.707 | 4.82 µM
RPMI-6666 (Hodgkin lymphoma, suspension) | 0.327 | 0.19 µM | 0.927 | > 1.02 µM | 0.954 | > 10.2 µM | 0.829 | 8.01 µM | 0.282 | 0.209 µM
NCI-H82 (small cell lung carcinoma, suspension) | 0.929 | > 10.2 µM | 0.988 | > 1.02 µM | 0.941 | > 10.2 µM | 0.98 | > 10 µM | 0.835 | 9.73 µM
MOLT-4 (lymphoblastic leukaemia, suspension) | 0.869 | 6.62 µM | 0.99 | > 1.02 µM | 0.924 | > 10.2 µM | 0.855 | 5.74 µM | 0.651 | 2.4 µM
LAN-6 (neuroblastoma, adherent) | 0.895 | > 10.2 µM | 0.969 | > 1.02 µM | 0.817 | 7.15 µM | 0.96 | > 10 µM | 0.881 | > 16 µM
EJM (lymphoid neoplasm, semi-adherent) | 0.877 | 7.49 µM | 0.992 | > 1.02 µM | 0.966 | > 10.2 µM | 0.922 | > 10 µM | 0.959 | > 16 µM
PSN1 (pancreas, adherent) | 0.884 | 8.06 µM | 0.99 | > 1.02 µM | 0.736 | 2.63 µM | 0.955 | > 10 µM | 0.452 | 0.757 µM
ES3 (Ewing sarcoma, adherent) | 0.906 | > 10.2 µM | 0.935 | > 1.02 µM | 0.849 | 8.35 µM | 0.745 | 3.29 µM | 0.785 | 7.24 µM
KU812 (chronic myeloid leukaemia, suspension) | 0.093 | < 0.04 µM | 0.988 | > 1.02 µM | 0.861 | 7.43 µM | 0.806 | 4.56 µM | 0.328 | 0.348 µM
AM-38 (glioma, semi-adherent) | 0.731 | 2.96 µM | 0.988 | > 1.02 µM | 0.976 | > 10.2 µM | 0.987 | > 10 µM | 0.848 | 12.3 µM
CP66-MEL (melanoma, adherent) | 0.97 | > 10.2 µM | 0.983 | > 1.02 µM | 0.959 | > 10.2 µM | 0.856 | 9.88 µM | 0.763 | 6.54 µM
ALL-SIL (T-cell leukaemia, suspension) | 0.051 | < 0.04 µM | 0.985 | > 1.02 µM | 0.771 | 3.4 µM | 0.878 | 7.77 µM | 0.425 | 0.643 µM
SK-PN-DW (Ewing sarcoma, adherent) | 0.752 | 3.5 µM | 0.973 | > 1.02 µM | 0.88 | > 10.2 µM | 0.928 | > 10 µM | 0.666 | 2.95 µM
TUR (B-cell lymphoma, suspension) | 0.85 | 6.88 µM | 0.985 | > 1.02 µM | 0.983 | > 10.2 µM | 0.835 | 5.86 µM | 0.484 | 0.906 µM
NCI-SNU-5 (stomach, suspension) | 0.989 | > 10.2 µM | 0.989 | > 1.02 µM | 0.98 | > 10.2 µM | 0.977 | > 10 µM | 0.918 | > 16 µM
THP-1 (acute myeloid leukaemia, suspension) | 0.839 | 5.99 µM | 0.991 | > 1.02 µM | 0.963 | > 10.2 µM | 0.884 | 8.92 µM | 0.963 | > 16 µM
